According to article PMC4336329 (PLoS ONE, 2015):
Hit rate of the full screen: of about 310,000 compounds, about 14,000 (4.5%) showed an effect of 50% or more. Effects have a minus sign here. This is one part of the list.

Target: human ether-à-go-go-related gene (hERG) potassium channel (human, UniProt Q12809)
Assay: primary screen, population patch clamp on CHO cells stably expressing hERG
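Further: peak tail current of the secondary pulse compared with the same well before compound.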

Chain of human ether-à-go-go-related gene (hERG) potassium channel (Q12809 whole entry, looked up): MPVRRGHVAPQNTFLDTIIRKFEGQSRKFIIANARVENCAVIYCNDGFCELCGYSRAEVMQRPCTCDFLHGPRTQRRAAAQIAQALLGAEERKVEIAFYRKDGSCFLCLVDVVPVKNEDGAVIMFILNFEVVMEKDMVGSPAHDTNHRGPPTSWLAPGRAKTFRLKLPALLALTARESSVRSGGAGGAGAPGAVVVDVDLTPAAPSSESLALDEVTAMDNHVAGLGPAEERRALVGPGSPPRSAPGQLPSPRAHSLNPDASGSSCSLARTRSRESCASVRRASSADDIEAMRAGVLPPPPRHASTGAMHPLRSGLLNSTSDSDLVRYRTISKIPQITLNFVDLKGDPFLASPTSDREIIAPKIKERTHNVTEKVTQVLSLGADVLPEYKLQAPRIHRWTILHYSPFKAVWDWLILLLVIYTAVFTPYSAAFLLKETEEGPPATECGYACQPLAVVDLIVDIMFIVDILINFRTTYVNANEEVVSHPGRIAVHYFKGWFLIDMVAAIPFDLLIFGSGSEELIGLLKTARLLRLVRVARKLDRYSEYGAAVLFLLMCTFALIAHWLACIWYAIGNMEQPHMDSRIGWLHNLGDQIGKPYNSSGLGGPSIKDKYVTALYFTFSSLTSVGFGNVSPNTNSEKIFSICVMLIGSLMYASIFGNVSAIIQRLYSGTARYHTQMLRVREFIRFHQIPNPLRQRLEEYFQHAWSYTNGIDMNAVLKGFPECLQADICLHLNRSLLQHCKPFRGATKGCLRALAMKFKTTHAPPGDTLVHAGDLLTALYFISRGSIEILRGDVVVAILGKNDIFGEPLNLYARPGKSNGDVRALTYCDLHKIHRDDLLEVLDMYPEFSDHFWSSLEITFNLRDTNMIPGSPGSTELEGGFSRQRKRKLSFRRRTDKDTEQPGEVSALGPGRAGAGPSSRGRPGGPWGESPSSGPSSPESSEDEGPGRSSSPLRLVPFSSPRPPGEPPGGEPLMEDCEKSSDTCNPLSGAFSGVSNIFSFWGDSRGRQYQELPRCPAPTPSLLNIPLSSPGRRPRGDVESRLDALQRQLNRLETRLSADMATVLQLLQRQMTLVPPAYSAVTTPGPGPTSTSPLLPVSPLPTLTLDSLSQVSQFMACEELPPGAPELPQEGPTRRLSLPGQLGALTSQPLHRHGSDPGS

Compound	hERG current change (%, negative = inhibition) at 10uM [%]
CCC(C)(C(=O)NC1CCCCC1)N(C(=O)CNC(=O)c1ccccc1)c1c(C)n(C)n(-c2ccccc2)c1=O (stereo not drawn)	10.1
CC1=NN(c2cccc(Cl)c2)C(=O)C1	6.9
Cc1ccccc1C(=O)NC1CCSC1=O (stereo not drawn)	-8.72
CCc1ccccc1N(CC(=O)N1CCN(c2ccc(F)cc2)CC1)S(C)(=O)=O	-35.7
CCn1c(SCC(=O)c2ccc(Cl)cc2)nnc1-c1ccoc1C	-32.5
COc1ccc(/C=C2\SC(=O)N(CC(=O)Nc3cccnc3)C2=O)cc1OC	22.9
Cn1c(SCC(=O)N/N=C/C=C/c2ccccc2[N+](=O)[O-])nc2ccccc21	-1.36
CCN(CC)S(=O)(=O)N1CCN(S(=O)(=O)N2CCOCC2)CC1	11
CC(=O)O.CN(C)Cc1cn(CCC(=O)O)c2ccccc12	11.7
COc1ccc(C(=O)NCc2ccc3c(c2)OCO3)c(OC)c1	4.98
CNc1sc(C(=O)c2ccc(F)cc2)c(N)c1-c1nc2ccccc2s1	12.2
CCCC(c1c(C)n(C)n(-c2ccccc2)c1=O)c1c(C)n(C)n(-c2ccccc2)c1=O	0.692
COc1ccc(-c2noc(CCCC(=O)Nc3cccnc3)n2)cc1OC	-6.97
O=C(Nc1cccc(F)c1)/C(=C\c1ccco1)NC(=O)c1cccs1	-8.28
C(#Cc1ccccc1)CN1CCN(c2ccccn2)CC1.Cl	-8.88
CCN1CCN(c2nc(Nc3ccc(OC)cc3)nc(N)c2[N+](=O)[O-])CC1	-32.2
CCc1cc2c3c(c(=O)oc2cc1O)CCCC3	15.2
O=S(=O)(c1ccccc1)c1nc(NCc2cccnc2)sc1Cl	-16.9
CCOC(=O)c1cc(NC(=O)COc2ccc([N+](=O)[O-])cc2)cc(C(=O)OCC)c1	-12.9
CCC(=O)N1CCc2cc(S(=O)(=O)CCC(=O)Nc3ccc(C)c(F)c3)ccc21	-0.224
CCCCCOC(=O)Nc1ccc(S(=O)(=O)Nc2cccc([N+](=O)[O-])c2)cc1	-4.77
Clc1ccc(Cl)c(-c2nn3c(Cn4cnc5ccccc54)nnc3s2)c1	10.2

Compound	hERG current change (%, negative = inhibition) at 10uM [%]
CC(C)CCOc1cccc(OCC(=O)NC2CCS(=O)(=O)C2)c1 (stereo not drawn)	-13.2
CC(C)c1ccccc1NC(=S)N1CCN(S(=O)(=O)c2cccs2)CC1	7.53
CCOC(=O)c1cnc(SCc2nc(N)nc(Nc3ccccc3)n2)nc1N	4.97
CC1Oc2ccccc2C=C1/C=N/NC(=O)c1ccccc1O (stereo not drawn)	-4.16
COc1ccc(/C(C)=N/N2CCOCC2)c(O)c1	2.21
O=C(CC1NCCNC1=O)Nc1ccc2c(c1)OCO2 (stereo not drawn)	0.941
CCn1c(SCC(=O)c2cc(OC)ccc2OC)nnc1C1CC1	7.86
CCN(CC#CCC1(O)c2ccccc2-c2ccccc21)CCO	9.9
CC1(C)CC(O)(CNCc2ccc3c(c2)OCO3)CCO1 (stereo not drawn)	10.2
CCOC(=O)c1ccccc1NS(=O)(=O)c1ccc(OCC)cc1	-0.383
Cc1cccc(C)c1OCCCCc1c(C)n[nH]c1C	-3.81
COC(=O)CN1C(=O)C(O)(CC(=O)c2cccc(Br)c2)c2ccccc21 (stereo not drawn)	-11.7
N#CC1=C(N)Oc2n[nH]c(-c3ccc(F)cc3)c2C1c1cccc(OC(=O)N2CCOCC2)c1 (stereo not drawn)	3.68
Cc1cc(=O)oc2c(C)c(OCC(=O)N3CC[C@@]4(O)CCCC[C@H]4C3)ccc12	-5.79
CC(=O)N1c2ccccc2C2CCCC[C@@H]21 (stereo partly drawn)	12.4
Cc1ccc(C(=O)COC(=O)CCC(=O)Nc2ccccc2Cl)cc1[N+](=O)[O-]	5.84
O=C(CSc1nc2nn(-c3ccccc3)c(=O)c-2c2n1CCCCC2)c1ccc(O)c(O)c1	-17.1
CSCCC(NC(=O)c1ccc(=O)n(C)n1)c1nc2ccccc2[nH]1 (stereo not drawn)	-7.3
CCN1CCN(c2cc(N3CCN(C(=O)c4ccco4)CC3)c3c4c(onc24)-c2ccccc2C3=O)CC1	-32.6
CC(=O)NC1=NN(C(C)=O)C(c2ccc(F)cc2)S1 (stereo not drawn)	7.04
Cc1ccc(S(=O)(=O)NNC(=O)c2ccoc2C)cc1	-70.6
CCOc1ccccc1-n1c(SCC(N)=O)nnc1-c1ccccc1	-3.42

Compound	hERG current change (%, negative = inhibition) at 10uM [%]
CCOC(=O)C1=C(C)NC(=S)NC1c1ccc(OCC(=O)N2CCCCC2)cc1 (stereo not drawn)	20.7
c1ccc(COc2ccc(OCCOCCn3cncn3)cc2)cc1	-23.4
CC(C)(C)C1CCC(=NNC(=O)CN(c2ccccc2)S(=O)(=O)c2ccccc2[N+](=O)[O-])CC1 (stereo not drawn)	6.69
CCOc1ccc2oc(C(=O)NCc3nc4ccccc4[nH]3)c(C)c2c1	10.3
CCCc1sc(N)nc1-c1ccc(C)cc1	-5.87
Cc1cnc(C(=O)OCC(=O)Nc2ccc(Br)cc2F)cn1	1.5
C/C(=N\Nc1ccccc1)c1cccc(N)c1	14.6
C=CCn1c(SCC(=O)Nc2ccccc2C)nnc1-c1ccncc1	-5.51
CNS(=O)(=O)c1ccc(NC(=O)c2ccoc2C)cc1	-0.00162
Cc1noc(NS(=O)(=O)c2ccc(NC(=O)CSc3nc4c(cc3C#N)CCCCC4)cc2)c1C	-10.8
CC(C)Oc1cccc(C(=O)NC(=S)Nc2cccc(NC(=O)c3ccccc3Cl)c2)c1	-11.9
COC(=O)c1ccc(Nc2nc(C)nc3c2nnn3Cc2ccccc2)cc1	20.1
Cc1cc(OCCN2CCOCC2)ccc1Cl	8.94
Cc1cc(=O)n2[nH]c(-c3sccc3-n3c(C)ccc3C)cc2n1	1.24
COc1ccc(-c2cc(C(=O)N3CCN(c4ccccc4)CC3)no2)cc1OC	20.9
COc1ccc(/C(C)=N/NC(=O)c2nc(C)cc(C)n2)cc1	-6.63
Cc1nn(CC(=O)Nc2ccc3c(c2)nc2n3CCOC2)c(=O)c2ccccc12	6.7
C/C(=N\NC(=O)c1cccc(N/N=C(\C)c2ccncc2)c1)c1ccncc1	-3.44
COc1ccc(/C=C(/CC(=O)Nc2ccccc2)c2nc3ccccc3s2)cc1	-1.37
CCn1nnc(-c2ccccc2NC(=O)c2ccc(-n3cnnn3)cc2)n1	-21.9
O=C(Nc1nccs1)c1c(O)c2c(n(Cc3ccco3)c1=O)CCCC2	-6.96
COc1ccc(OC)c(S(=O)(=O)N2CCC(C(=O)NCc3ccc4c(c3)OCO4)CC2)c1	-3.84

Compound	hERG current change (%, negative = inhibition) at 10uM [%]
Fc1ccc(Cn2nnc(-c3ccc(CN4CCOCC4)cc3)n2)cc1	-27.1
COc1ccc(OCCCC(=O)NCCc2nc3ccccc3[nH]2)cc1	-1.29
Cc1nc(Nc2ccccc2F)c2nnn(Cc3ccccc3Cl)c2n1	19.2
COc1cc(C(=O)NNC(=S)Nc2ccc(S(N)(=O)=O)cc2)cc(OC)c1OC	20.7
COc1ccc(C2=NS(=O)(=O)N(C)C(C(=O)NCc3ccco3)=C2)cc1OC	-48.9
CCn1nnnc1SCC(=O)N(C1CCCCC1)C1CCCCC1	-15.6
CC(NC(=O)/C(C#N)=C/c1cn(-c2ccccc2)nc1-c1ccc(F)cc1)c1ccccc1 (stereo not drawn)	4.81
CCOC(=O)C1=C(C)NC(C)=C(C(=O)OCC)C1c1cccc(C)n1	0.35
COc1ccc(C)cc1-n1nnnc1SCC(=O)Nc1cc(C)on1	-7.77
O=C(CNC(=O)C1COc2ccccc2O1)N/N=C\c1ccc(Cl)cc1 (stereo not drawn)	-69.4
NC(=O)c1sc2nc3c(c(-c4cccnc4)c2c1N)CCC3	3.91
O=C(NNC(=O)c1ccccc1Br)c1cccc(Cl)c1	-7.94
Clc1ccc2ncc(-c3nnnn3-c3ccccc3)c(-c3ccccc3)c2c1	9.63
O=C1c2ccccc2C(=O)N1c1cccc2cccnc12	14
CC(=O)O.Cc1ccc(C2C(C(=O)c3cccs3)=C(O)C(=O)N2c2ccc(S(N)(=O)=O)cc2)cc1 (stereo not drawn)	16.5
Cn1ncc(Cl)c1C(=O)Nc1ccc2c(c1)CCC2	15.5
COc1ccc(N2CC(C(=O)Nc3ncccc3C)CC2=O)cc1 (stereo not drawn)	-2.08
CCOc1ccc(CN2CCN(Cc3cnn(CC)c3C)CC2CCO)cc1 (stereo not drawn)	-67.8
N#CC(=C1SC=CS1)c1nc(-c2ccccc2)cs1	9.47
CCOc1cc(CNCCc2c[nH]c3ccccc23)cc(Cl)c1OC.Cl	1.35
Cc1ccc(/C=N\NC(=O)Cn2c(C)nc3ccccc32)o1	-0.00632
